Experimental data from PMC4336329 (PLoS ONE, 2015).
Hit rate of the full screen: of about 310,000 compounds, about 2,200 (0.71%) showed an effect of 50% or more. The effect is printed as a negative number. This is one part of the list.

biological target: human ether-à-go-go-related gene (hERG) potassium channel (human, UniProt Q12809); assay: primary screen, population patch clamp on CHO cells stably expressing hERG
Sequence (Q12809 whole entry, looked up): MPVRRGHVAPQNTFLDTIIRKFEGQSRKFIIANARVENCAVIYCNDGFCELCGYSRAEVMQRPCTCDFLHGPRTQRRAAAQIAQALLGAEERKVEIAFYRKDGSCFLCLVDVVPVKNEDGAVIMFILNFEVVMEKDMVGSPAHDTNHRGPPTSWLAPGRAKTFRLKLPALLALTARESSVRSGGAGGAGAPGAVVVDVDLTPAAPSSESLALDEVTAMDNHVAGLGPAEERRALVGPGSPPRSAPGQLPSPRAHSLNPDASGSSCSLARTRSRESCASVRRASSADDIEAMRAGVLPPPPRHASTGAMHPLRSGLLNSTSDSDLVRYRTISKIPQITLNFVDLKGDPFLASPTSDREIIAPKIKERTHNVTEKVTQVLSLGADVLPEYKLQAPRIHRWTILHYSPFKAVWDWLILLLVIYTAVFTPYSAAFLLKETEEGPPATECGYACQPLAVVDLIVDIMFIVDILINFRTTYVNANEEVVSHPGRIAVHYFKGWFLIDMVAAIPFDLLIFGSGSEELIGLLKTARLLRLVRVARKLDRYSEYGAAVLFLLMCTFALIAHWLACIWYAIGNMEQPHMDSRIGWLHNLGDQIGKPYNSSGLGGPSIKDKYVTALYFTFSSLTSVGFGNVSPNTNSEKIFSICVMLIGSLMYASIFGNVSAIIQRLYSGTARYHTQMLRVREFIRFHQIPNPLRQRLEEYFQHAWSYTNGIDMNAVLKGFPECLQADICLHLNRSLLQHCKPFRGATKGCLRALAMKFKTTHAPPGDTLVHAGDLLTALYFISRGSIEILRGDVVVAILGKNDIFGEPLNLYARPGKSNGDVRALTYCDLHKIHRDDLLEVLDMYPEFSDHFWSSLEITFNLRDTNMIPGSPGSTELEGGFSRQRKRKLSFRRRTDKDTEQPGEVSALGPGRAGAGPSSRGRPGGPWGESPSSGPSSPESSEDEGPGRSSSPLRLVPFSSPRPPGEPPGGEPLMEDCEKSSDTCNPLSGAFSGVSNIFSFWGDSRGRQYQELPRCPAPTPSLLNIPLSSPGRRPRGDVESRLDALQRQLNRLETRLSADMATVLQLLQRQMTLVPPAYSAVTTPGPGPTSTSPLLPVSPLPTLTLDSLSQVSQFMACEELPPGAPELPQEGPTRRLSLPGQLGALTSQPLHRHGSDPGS

SMILES | hERG current change (%, negative = inhibition) at 1uM [%]
CCOc1ccc(N(CC(=O)NCCc2ccc(C)cc2)S(=O)(=O)c2c(C)noc2C)cc1 | 12.8
COc1ccc(CNc2ncnc3cc(OC)c(OC)cc23)cc1 | 10.3
CCC(C)Sc1ccc([C@@H]2[C@H]3C(=O)N(CC)C(=O)[C@H]3[C@]3(C(=O)OC)CCCCN23)cc1.O=C(O)C(F)(F)F (stereo partly drawn) | 14
C=CCNC(=S)Nc1cccc(NC(=S)NCC=C)c1 | 0.75
CC1(C)Oc2cc(N)c([N+](=O)[O-])cc2O1 | 15.8
CCC1CCCCN1Cc1nc2c(c(=O)n(C)c(=O)n2C)n1Cc1ccccc1 (stereo not drawn) | -0.863
CCOC(=O)c1c(S(=O)(=O)N2CCCC(C(=O)Nc3cccc(C)n3)C2)c(C)n(C)c1C (stereo not drawn) | 4.34
CCOc1ccc(CCNC(=O)c2cc(-c3ccccc3)c(N3CCOCC3)s2)cc1 | 12.5
CN(CCCC(=O)NCc1ccccc1)S(=O)(=O)c1ccc([N+](=O)[O-])cc1 | -10.6
C/C(=N\N1CCCCCC1)c1c(O)n(-c2ccc(C)cc2)c(=O)[nH]c1=O | 12.9
CCOc1ccc(C(C)=O)cc1CSC(=N)N.Cl | 18.8
CC1Nc2ccc(C(=O)NC3CCCCC3)cc2NC1=O (stereo not drawn) | 15.6
CCC(C)NC(=O)C1CC(c2cccc(OC)c2)=NO1 (stereo not drawn) | 16.2
CCN1CCN(C(CNS(=O)(=O)c2ccc(F)cc2)c2cccnc2)CC1 (stereo not drawn) | 5.34
CCOc1ccccc1NC(=O)c1cc(S(=O)(=O)N2CCOCC2)ccc1C | 5.25
Cc1ccccc1CNC(=O)CN(c1cccc([N+](=O)[O-])c1)S(C)(=O)=O | 8.52
COC(=O)c1onc(-c2c(C)cc(C)cc2C)c1C(=O)OC | 20.3
O=c1c2cc(NC(=S)N3CCC(N4CCCCC4)CC3)ccc2nc2n1CCCCC2 | 2.8
COc1ccc(CNCc2cccc3ccccc23)cc1.O=C(O)C(=O)O | -2.81
CCn1c(=O)cc(SCC(=O)NCCC2=CCCCC2)c2ccccc21 | 2.18
C=CCn1c(Oc2ccccc2)nc2c1c(=O)n(C)c(=O)n2C | 7.67

SMILES | hERG current change (%, negative = inhibition) at 1uM [%]
COc1cccc(NC(=O)CSc2nnc(CN3CCOCC3)n2C)c1 | -3.08
COc1cc(OC)c(C2=NOC(C(=O)Nc3cc(C)nn3-c3ccccc3)C2)cc1Cl (stereo not drawn) | 1.76
Nc1c(C(=O)O)sc2nc(-c3ccccc3)c3c(c12)CCCC3 | 17.4
Cn1c(=O)c2c(nc(NC3CCCC3)n2C)n(C)c1=O | 13
COc1ccc(CNC(=O)C2CC(C)=C(C)CC2C(=O)O)cc1 (stereo not drawn) | 7.52
Cc1ccccc1C(=O)N1CCc2cc(-c3nc(NC(=O)Cc4ccc5c(c4)OCO5)sc3C)ccc21 | 9.57
Cc1ccc(C(=O)CCC(=O)Nc2ccccc2C)cc1C | 15.8
CCOC(=O)C1=C(c2ccccc2)NC(SCC(N)=O)=C(C#N)C1c1cccnc1 (stereo not drawn) | 5.27
CN(CC(=O)Nc1ccc(F)cc1)C(=O)Cc1ccsc1 | 5.56
Cc1cc(Br)cnc1NC(=S)Nc1ccc(F)cc1F | 5.51
CC(C)OCCCNC(=S)Nc1ccc(S(N)(=O)=O)cc1 | 1.53
CN(C[C@H](Cc1ccccc1)N(C[C@H](Cc1ccccc1)N(CCC(C)(C)C)N=O)N=O)N=O.[Na+] | 11.9
CCCSc1nc2c3c(sc2c(=O)[nH]1)CC(C)(CC)OC3 (stereo not drawn) | 7.53
O=C(Nc1ccc(Cl)c([N+](=O)[O-])c1)c1cnccn1 | 12.5
O=C(CN1CCN(c2ccccc2F)CC1)c1ccc(O)cc1O | 16.2
O=C(CN1CCCCCC1)Nc1ccc(S(=O)(=O)N2CCCCC2)cc1 | 6.38
CCOC(=O)N1CCN(CC(=O)N2CCC(C(N)=O)CC2)CC1 | 6.92
CC1(C)CC(=O)c2sc(NC(=O)c3ccc4ncsc4c3)nc2C1 | 2.99
Cc1ccc(C(=O)NC(=S)NCc2cccnc2)c(C)c1 | 12.1
CCOc1cc(N2CCOCC2)c(OCC)cc1NC(=O)CSc1ccccc1C(=O)O | 7.07
CC(=O)O.COc1ccc(C2Nc3ccccc3C(=O)N2Cc2ccco2)cc1CN1C(=O)c2ccccc2C1=O (stereo not drawn) | 4.8

SMILES | hERG current change (%, negative = inhibition) at 1uM [%]
Cc1oc(/N=C/c2ccccc2)c(C#N)c1C | 16.9
COc1ccc(-c2nn(-c3ccccc3)cc2CN2CCCO2)c(F)c1 | 5.63
CCc1c(C(=O)NCc2ccc3c(c2)OCO3)[nH]c(C)c1C(C)=O | 2.96
CCCCCC(=O)Nc1c(-c2cccs2)c(=O)c2ccccc2n1C | -1.1
COCCCN1C(=O)C(=O)/C(=C(/O)c2ccc(OC(C)C)cc2)C1c1ccc(O)c(OC)c1 (stereo not drawn) | 5.77
Cc1ccc(CN2CC34C=CC(O3)C(C(=O)NCc3ccc5c(c3)OCO5)C4C2=O)cc1 (stereo not drawn) | 0.0257
CC(=O)c1oc2ccccc2c1NC(=O)CN1CCCCC1.Cl | 13
CCn1c(SCC(=O)NNC(=O)c2ccc(OC)cc2)nnc1-c1ccco1 | 4.07
Cc1nnnn1/C(=C\c1ccccc1)C(=O)OCC(=O)Nc1cccc(S(=O)(=O)N(C)C)c1 | 1.81
COc1cccc(CNC(=O)CSc2cc(=O)n(C)c3ccccc23)c1 | 10.4
Cc1noc(C)c1C(=O)NCCC1=CCCCC1 | -2.28
CC1CCC(NC(=O)c2ccc(CS(=O)(=O)Cc3ccccc3F)o2)CC1 (stereo not drawn) | -6.45
Cn1c(=O)c(C(=O)COC(=O)c2cc(C3CC3)nc3ccccc23)c(N)n(Cc2ccccc2)c1=O | 14.2
Cc1cc(NS(=O)(=O)c2ccc(NC(=O)CSc3nc4ncc(Br)cc4[nH]3)cc2)nc(C)n1 | 13.9
CC(=O)Nc1ccc(NC(=S)NC(=O)/C=C/c2ccccc2)cc1 | 7.76
NC(=O)c1nsc(C(=O)N(Cc2cccnc2)C(C(=O)NCc2ccccc2)c2ccc(O)cc2)c1N (stereo not drawn) | 10.5
Cc1cc(C)cc(NC(=O)CSc2nnc(NC(=O)C3CC3)s2)c1 | 15.9
O=C(Nc1cc(S(=O)(=O)N2CCOCC2)ccc1N1CCOCC1)c1cnccn1 | 6.97
O=c1[nH]c(=O)c2nc3c4ccccc4c4ccccc4c3nc2[nH]1 | 8.18
CCCc1nc(C(C)(C)O)c(C(=O)O)n1Cc1ccc(-c2ccccc2-c2nn[nH]n2)cc1 | 4.96
CN1CCN(c2ccc(NC(=O)c3cccs3)cc2)CC1 | 15.3

SMILES | hERG current change (%, negative = inhibition) at 1uM [%]
COc1cc(NC(=O)CSc2nnc(NC(C)C)s2)cc(OC)c1OC | 12.7
O=C(C1=C[C@H](c2csc3ccccc23)C[C@H](OCc2ccc(CO)cc2)O1)N1CCCCCCC1 | 9.3
O=C(COC(=O)Cc1ccc(F)cc1)NC1CCCCC1 | 13
COc1ccc(CCn2c(SCCN3CCCCC3)nc3ccccc3c2=O)cc1OC | -8.22
COC(=O)CC1C(=O)NCCN1C(=S)NC(=O)c1sc2ccccc2c1Cl (stereo not drawn) | 5.08
COc1cccc(NC(=O)c2c([N+](=O)[O-])cnn2C)c1 | 15.3
O=C(CCN1C(=O)c2ccccc2S1(=O)=O)Nc1nc2c(s1)CCCC2 | 8.87
COc1ccc(CCn2cnc3c([nH]c4ccccc43)c2=O)cc1 | 11
Cc1ccc(CN2CCCC(CO)(Cc3ccccc3C)C2)s1 (stereo not drawn) | 6.49
COc1ccc(CN2C(=NC(=O)C3CCCO3)SC3CS(=O)(=O)CC32)cc1 (stereo not drawn) | -1.04
Cc1ccc(C(=O)NCC(=O)OCC(=O)N(CC(C)C)c2c(N)n(Cc3ccccc3)c(=O)[nH]c2=O)cc1 | -4.67
Cc1c(CN2CCC(CO)(CC3CCCCO3)CC2)cnn1C (stereo not drawn) | 21.7
CC(C)(C)c1ccc(C(=O)NCC(=O)OCC(=O)Nc2ccccc2[N+](=O)[O-])cc1 | 6.55
CCc1nc(SCC(=O)c2cc(C)ccc2C)n[nH]1 | 5.96
COc1ccc(CCNC(=O)COC(=O)c2cc(OC)c(OC)cc2OC)cc1 | 6.48
O=C1N[C@@H](Cc2ccccc2)C(=O)N2[C@H]3Nc4ccccc4[C@@]3([C@]34C[C@H]5C(=O)N[C@@H](Cc6ccccc6)C(=O)N5[C@H]3Nc3ccccc34)C[C@@H]12 | 16.8
Cc1[nH]n(-c2cccc3ccccc23)c(=O)c1/C=N/c1sc2c(c1C#N)CCC2 | 9.06
Cc1c(NS(=O)(=O)c2ccc(C(=O)NCc3ccccc3)cc2)c(=O)n(-c2ccccc2)n1C | 4.95
Cc1ccsc1-c1nc(CN(C)C(C2CC2)C2CC2)c(C)o1 | -48.7
Cl.Clc1ccc2sc(C3CCNCC3)nc2c1 | 15.8
COc1ccc(NC(=O)CSc2nnnn2C2CC2)cc1S(=O)(=O)N1CCOCC1 | 10.6
